# According to publication PMC6919601, “Identification of Plasmodium dipeptidyl aminopeptidase allosteric inhibitors by high throughput screening” (PLoS ONE, 2019):
# Out of some 110,000 compounds screened, about 230 (0.21%) showed an effect of 50% or more. The list shows a part of the results.
# Target: DPAP1 (Plasmodium falciparum, UniProt Q8IIJ9)
# Test: primary screen, percent inhibition; read by cleavage of a fluorogenic dipeptide substrate; higher = more effect of the substance
# Design: species or system P. falciparum D10 trophozoite lysates; single well
# 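Further: 30 min substrate incubation versus DMSO and 10 µM JCP410 controls.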
# Sequence of DPAP1 (Q8IIJ9 whole entry, looked up): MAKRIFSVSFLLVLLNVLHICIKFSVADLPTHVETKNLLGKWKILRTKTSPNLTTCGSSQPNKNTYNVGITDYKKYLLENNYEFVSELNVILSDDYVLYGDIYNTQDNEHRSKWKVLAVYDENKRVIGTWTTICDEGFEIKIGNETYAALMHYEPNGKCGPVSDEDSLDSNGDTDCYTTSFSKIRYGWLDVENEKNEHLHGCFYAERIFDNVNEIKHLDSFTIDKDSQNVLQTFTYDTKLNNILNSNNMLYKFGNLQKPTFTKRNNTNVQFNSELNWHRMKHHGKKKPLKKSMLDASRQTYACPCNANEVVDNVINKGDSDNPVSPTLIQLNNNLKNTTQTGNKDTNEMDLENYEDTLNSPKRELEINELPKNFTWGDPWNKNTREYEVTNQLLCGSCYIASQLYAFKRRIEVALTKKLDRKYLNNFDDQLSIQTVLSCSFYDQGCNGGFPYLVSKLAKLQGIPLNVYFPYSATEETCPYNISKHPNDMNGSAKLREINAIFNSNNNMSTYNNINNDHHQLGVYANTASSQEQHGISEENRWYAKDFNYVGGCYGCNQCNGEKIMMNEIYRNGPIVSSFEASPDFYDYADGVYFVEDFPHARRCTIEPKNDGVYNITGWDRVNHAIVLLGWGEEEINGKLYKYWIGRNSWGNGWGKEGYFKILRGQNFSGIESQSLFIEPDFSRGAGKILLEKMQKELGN
row,SMILES,% Inhibition @ 10 uM [%]
1,COc1ccc(Br)cc1CN1CCCC(O)C1 (centres unmarked),3
2,COc1ccc2c(c1)C(=O)N(CCc1ccccc1)C(=O)C2,2.03
3,COc1ccc(Cc2nnc(NC(=O)/C(=C/c3ccccc3)c3ccccc3)s2)cc1,2.25
4,O=S(=O)(c1cccc(C(F)(F)F)c1)N1CCN(c2ccccc2F)CC1,-12.8
5,CC1=CC2=NC(=O)/C(=C\c3cccn3Cc3ccccc3)C(=N)N2O1,0.102
6,O=C(CSc1nnnn1-c1ccccc1F)NCc1ccc2c(c1)OCO2,-1.24
7,CSc1nncn1/N=C/c1cc(Cl)ccc1F,-2.6
8,CCOC(=O)N1CCC(N2CCN(c3ccccc3)CC2)CC1,-4.04
9,CN1CCN(C(=O)CCCN2C(=O)CSc3ncccc32)CC1,-4.15
10,Cn1cccc1/C=C1\CC/C(=C\c2cccn2C)C1=O,-0.503
11,COc1ccccc1-c1nnc2sc(C3COc4ccccc4O3)nn12 (centres unmarked),4.47
12,COc1ccc(NC(=O)c2cc3c([nH]c4ccccc43)c(C)n2)cc1,3.83
13,C=CCNC1CC(=O)N(c2ccc(CC)cc2)C1=O (centres unmarked),-12.3
14,CCn1c(SCC(=O)Nc2nc(C)cs2)nc2c(c1=O)SCC2,1.39
15,CN(C)/C=N/C1=NN(c2cccc(C(F)(F)F)c2)CC1,26.5
16,COc1ccccc1C1=NC(=O)CS1,0.878
17,O=C(NCCN1CCOCC1)C1CCN(c2ncnc3c2sc2cccc(F)c23)CC1,-4.15
18,CC(C)C[C@H](NC(=O)OCc1ccccc1Cl)C(=O)NCC#N,-3.04
19,CCOc1ccc(C(=O)CSc2nc3ccccc3o2)cc1[N+](=O)[O-],4.89
20,Cc1cc(C)n(CC(O)Cn2c3ccccc3c3ccccc32)c(=O)n1 (centres unmarked),80.2
21,FC(F)(F)c1ccccc1CN1CCN(c2ccccn2)CC1,2.23
22,Cc1ccc(S(=O)(=O)N2CCCC2)cc1[N+](=O)[O-],-6.82
23,O=S(=O)(c1ccc(NCc2ccccc2)c(S(=O)(=O)N2CCCCC2)c1)N1CCCCC1,2.44
24,OCCN1CCN(Cc2ccc3c(c2)OCO3)CC1,-2.12
25,O=C1NC(=O)N(Cc2ccccc2)C(=O)/C1=C\c1ccc(SCc2ccco2)o1,2.14

row,SMILES,% Inhibition @ 10 uM [%]
1,CC(Sc1nc(-c2ccccc2)c(-c2ccccc2)[nH]1)C(=O)O (centres unmarked),-3.04
2,CC(C)C[C@H](NC(=O)c1ccc(-c2cnc(N(C)C)s2)cc1)C(=O)NCCN(CC(C)C)CC(C)C,13.8
3,CCC(Cc1ccccc1)NC(=O)C1=C(C)C(=O)OC12CCCCC2 (centres unmarked),-5.58
4,CCN(CC)S(=O)(=O)c1cccc(C(=O)Nc2cc(C)on2)c1,-2.15
5,N#C/C(=C\c1ccccc1[N+](=O)[O-])c1nc(-c2ccc(Cl)c(Cl)c2)cs1,-10.1
6,Cc1nc2ccc3ccccc3c2c(O)c1C/C=C/Cl,-1.32
7,Cc1c(Cl)cccc1NC(=O)c1ccc(OCC(=O)NCc2ccccc2)cc1,-5.81
8,Cc1sc(C2C(C#N)=C(N)OC3=C2C(=O)CC(C)(C)C3)cc1COc1ccccc1Br (centres unmarked),1.43
9,COc1cc(CNCc2ccccc2)cc(Cl)c1OCc1cccs1,4.85
10,O=C(CCNS(=O)(=O)c1cccc2nonc12)NCc1ccccc1Cl,1.26
11,Cc1ccc(S(=O)(=O)N2CCC(C(=O)NCCCN3CCCCCC3)CC2)cc1,0.387
12,COc1ccc(/C(C)=N/OCc2nc3c4c5c(sc4ncn3n2)CCCCC5)cc1OC,-11.3
13,N#CSCC(=O)N1c2ccccc2Sc2ccccc21,10.6
14,COc1nc(N(C)C)nc(-n2cc(-c3ccccc3)nn2)n1,-0.403
15,COc1ccc(NC=C2C(=O)NC(=O)NC2=O)cc1OC,2.44
16,O=C(CN1Cc2ccccc2C1=O)NC1CCCCCC1,-1.62
17,COc1ccc2c(c1OC)C(=O)N(c1ccc(Cl)c(Cl)c1)C2=O,-2.98
18,CCN(CC)S(=O)(=O)c1ccc2ncc(C(=O)NCCCN3CCCCC3C)c(O)c2c1 (centres unmarked),0.955
19,CS(=O)(=O)[C@]1(Cc2ccccc2)[C@@H]2OCCC[C@@H]2S1(=O)=O,7.76
20,CCOc1ccc(CCNC(=O)C2CCN(S(=O)(=O)N3CCC(C)CC3)CC2)cc1OCC,-1.34
21,COc1ccc(S(=O)(=O)NC(C(C)C)C(C)C)cc1OC,-3.72
22,OC(CSc1ccccc1)CN1CCCCC1 (centres unmarked),-1.05
23,Cc1ccc(CNC(=O)CSc2nc(-c3ccc4c(c3)OCO4)ccc2C#N)cc1,-2.45
24,CCN(CC)S(=O)(=O)c1ccc(NC(=O)c2ccc(F)cc2)cc1,-0.173
25,Cc1cccc(C(=O)NC(CC(=O)O)c2ccc(C(C)(C)C)cc2)c1 (centres unmarked),-0.703
